Source: paper PMC5791736
These are yes or no findings as the source states them, for the method shown. Binding seen in cells or lysates may run through a third protein. Some results given as binding are weak or reduced against the parent protein; the word gives no strength. Tags and fused reporters may be left off the sequences shown. Blank lines part the entries; values can stand above or below the binder they belong to.

Protein sequences, listed by entry. Tags and fused reporters are not part of them. Lines headed by an entry give the natural chain unless they say otherwise; changes in a name come on top. Residues count along the entry.
UniProt O95166: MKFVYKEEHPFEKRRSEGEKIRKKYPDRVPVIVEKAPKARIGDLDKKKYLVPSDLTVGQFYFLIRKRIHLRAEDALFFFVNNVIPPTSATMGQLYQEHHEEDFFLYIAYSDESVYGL
UniProt Q9BXW4, residues 1-126: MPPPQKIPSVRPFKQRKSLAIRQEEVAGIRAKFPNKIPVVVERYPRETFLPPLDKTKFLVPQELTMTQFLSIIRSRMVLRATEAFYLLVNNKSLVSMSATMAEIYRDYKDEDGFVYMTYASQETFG

Key:
Experiment in all cases: pull-down; GST fusion of the ATG8 ortholog batch pre-purified on glutathione Sepharose 4B beads, incubated with HEK lysate of transfected tagged CCPG1 in IGEPAL IP buffer (50 mM Tris-HCl pH 7.5, 150 mM NaCl, 0.5% IGEPAL), 4°C, 2-18 h; immunoblot; only the target purified
GST-GABARAP (human) = GST-GABARAP (human) (UniProt O95166)
[1] = biological target: GST-GABARAP mtLDS Y49A L50A (human) (UniProt O95166)
GST-LC3C (human) = GST-LC3C (human) (UniProt Q9BXW4)

binding (GST-GABARAP (human)): binds
binding [1]: no binding
B1: myc-CCPG1 NTD (domain or fragment, UniProt Q9ULG6 1-230)
chain: MSENSSDSDSSCGWTVISHEGSDIEMLNSVTPTDSCEPAPECSSLEQEELQALQIEQGESSQNGTVLMEETAYPALEETSSTIEAEEQKIPEDSIYIGTASDDSDIVTLEPPKLEEIGNQEVVIVEEAQSSEDFNMGSSSSSQYTFCQPETVFSSQPSDDESSSDETSNQPSPAFRRRRARKKTVSASESEDRLVAEQETEPSKELSKRQFSSGLNKCVILALVIAISMG

binding (GST-GABARAP (human)): binds
binding (GST-LC3C (human)): binds
B2: myc-CCPG1 (full-length, 6x myc) (protein, UniProt Q9ULG6 1-757)
chain: MSENSSDSDSSCGWTVISHEGSDIEMLNSVTPTDSCEPAPECSSLEQEELQALQIEQGESSQNGTVLMEETAYPALEETSSTIEAEEQKIPEDSIYIGTASDDSDIVTLEPPKLEEIGNQEVVIVEEAQSSEDFNMGSSSSSQYTFCQPETVFSSQPSDDESSSDETSNQPSPAFRRRRARKKTVSASESEDRLVAEQETEPSKELSKRQFSSGLNKCVILALVIAISMGFGHFYGTIQIQKRQQLVRKIHEDELNDMKDYLSQCQQEQESFIDYKSLKENLARCWTLTEAEKMSFETQKTNLATENQYLRVSLEKEEKALSSLQEELNKLREQIRILEDKGTSTELVKENQKLKQHLEEEKQKKHSFLSQRETLLTEAKMLKRELERERLVTTALRGELQQLSGSQLHGKSDSPNVYTEKKEIAILRERLTELERKLTFEQQRSDLWERLYVEAKDQNGKQGTDGKKKGGRGSHRAKNKSKETFLGSVKETFDAMKNSTKEFVRHHKEKIKQAKEAVKENLKKFSDSVKSTFRHFKDTTKNIFDEKGNKRFGATKEAAEKPRTVFSDYLHPQYKAPTENHHNRGPTMQNDGRKEKPVHFKEFRKNTNSKKCSPGHDCRENSHSFRKACSGVFDCAQQESMSLFNTVVNPIRMDEFRQIIQRYMLKELDTFCHWNELDQFINKFFLNGVFIHDQKLFTDFVNDVKDYLRNMKEYEVDNDGVFEKLDEYIYRHFFGHTFSPPYGPRSVYIKPCHYSSL

binding (GST-GABARAP (human)): binds
B3: GFP-CCPG1 (full-length) (protein, UniProt Q9ULG6 1-757)
chain: B2 chain
